# Experimental data as given in article PMC4336329 (PLoS ONE, 2015).
# About 14,000 (4.5%) of roughly 310,000 compounds showed an effect of 50% or more. The effect is printed as a negative number. Some of the results follow.
# Biological target: human ether-à-go-go-related gene (hERG) potassium channel (human, UniProt Q12809)
# Assay: primary screen, population patch clamp on CHO cells stably expressing hERG
# 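Also: peak tail current of the secondary pulse compared with the same well before compound.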
# Chain of human ether-à-go-go-related gene (hERG) potassium channel (Q12809 whole entry, looked up): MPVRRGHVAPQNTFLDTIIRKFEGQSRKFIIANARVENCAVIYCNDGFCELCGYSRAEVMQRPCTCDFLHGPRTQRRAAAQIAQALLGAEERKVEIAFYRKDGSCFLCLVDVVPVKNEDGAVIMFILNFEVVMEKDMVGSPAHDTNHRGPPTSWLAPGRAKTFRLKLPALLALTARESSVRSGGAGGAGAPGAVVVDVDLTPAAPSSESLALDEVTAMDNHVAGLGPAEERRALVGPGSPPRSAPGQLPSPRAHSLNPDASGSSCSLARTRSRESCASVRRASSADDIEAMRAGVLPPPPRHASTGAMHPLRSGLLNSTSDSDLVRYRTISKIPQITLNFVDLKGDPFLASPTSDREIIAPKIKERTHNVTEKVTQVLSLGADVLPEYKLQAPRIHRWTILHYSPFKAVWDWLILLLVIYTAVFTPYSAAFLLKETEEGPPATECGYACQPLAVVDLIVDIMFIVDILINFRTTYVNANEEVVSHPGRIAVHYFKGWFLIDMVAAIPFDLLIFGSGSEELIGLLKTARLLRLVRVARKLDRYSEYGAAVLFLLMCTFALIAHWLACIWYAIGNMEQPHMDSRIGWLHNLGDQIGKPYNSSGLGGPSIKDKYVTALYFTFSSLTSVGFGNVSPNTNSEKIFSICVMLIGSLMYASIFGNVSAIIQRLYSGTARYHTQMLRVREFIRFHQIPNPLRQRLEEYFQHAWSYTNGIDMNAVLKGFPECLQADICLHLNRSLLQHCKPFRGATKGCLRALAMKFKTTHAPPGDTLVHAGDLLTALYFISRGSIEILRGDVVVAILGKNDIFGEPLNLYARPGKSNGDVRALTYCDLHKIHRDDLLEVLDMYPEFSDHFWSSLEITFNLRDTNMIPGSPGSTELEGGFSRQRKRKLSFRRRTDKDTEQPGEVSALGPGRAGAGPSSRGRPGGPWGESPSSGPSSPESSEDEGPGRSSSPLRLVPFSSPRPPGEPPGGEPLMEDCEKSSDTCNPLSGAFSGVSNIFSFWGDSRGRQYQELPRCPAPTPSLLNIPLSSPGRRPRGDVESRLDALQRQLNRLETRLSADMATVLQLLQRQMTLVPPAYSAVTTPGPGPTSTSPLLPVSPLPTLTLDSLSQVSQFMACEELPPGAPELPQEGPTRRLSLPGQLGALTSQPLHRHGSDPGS
row,SMILES,"hERG current change (%, negative = inhibition) at 10uM [%]"
1,O=C(c1cc2cc(Cl)cc(Cl)c2oc1=O)N1CCOCC1,-14.5
2,Cc1cc(C(=O)Nc2ccccc2C)on1,17.6
3,NC(=O)N/N=C/c1ccc([N+](=O)[O-])o1,7.41
4,Cc1cccc(NC(=O)CN(C)S(=O)(=O)c2ccc3c(c2)n(C)c(=O)c(=O)n3C)c1C,-7.72
5,COC(=O)c1ccccc1NC(=O)c1cc(-c2ccc(O)cc2)on1,1.4
6,Cc1cccc(OCc2nnc(SCC(=O)NCCc3ccccc3)o2)c1,5.59
7,Nc1nnc(CSCc2cccc(Br)c2)s1,9.08
8,NC1=NC2(CCCC2)N=C(Nc2ccccc2)N1,16.5
9,COc1ccc(-n2nc(C)cc2N)cc1,18.6
10,Cc1ccc(CNC(=O)c2sc3nc4c(c(C(F)(F)F)c3c2N)CCC4)cc1,-8.52
11,O=C(CN1CCSCC1)c1c[nH]c2ccccc12,4.87
12,CCN(C#N)c1nc(N(C)C)nc(N(C)C)n1,-15.7
13,CCn1c(SCC(=O)Nc2cc(C)on2)nc2c([nH]c3ccccc32)c1=O,17.9
14,Cc1c(OCC(=O)N2CCC(C(=O)O)CC2)ccc2c1oc(=O)c1ccccc12,3.65
15,COc1cc(C(=O)NS(=O)(=O)c2ccccc2C)ccc1Cc1cn(C)c2ccc(NC(=O)OC3CCCC3)cc12,-8.23
16,O=C(COc1ccc(S(=O)(=O)NC2CCCCC2)cc1)NC1CCCCC1,-54.1
17,CN(C)CCNC(=S)Nc1ccc(Br)cc1,-6.8
18,O=C(C1=C(O)/C(=C/c2ccc(O)cc2)CCC1)C(F)(F)F,11.7
19,CCOc1cccc(OCCOCCN(C)C)c1.O=C(O)C(=O)O,0.719
20,O=C(NCc1ccc(C(F)(F)F)cc1)C1CC(c2cccc(F)c2)=NO1 (centres unmarked),13.3
21,COc1ccccc1CNC(=O)c1csc(Cc2ccc(Cl)cc2)n1,-0.553
22,O=C(CSc1nnnn1C1CCCC1)Nc1cccc(NC(=O)c2ccco2)c1,-55.9
23,O=C(COc1ccc(F)cc1)Nc1ccccc1N1CCOCC1,-6.81

row,SMILES,"hERG current change (%, negative = inhibition) at 10uM [%]"
1,COC(=O)Cn1c2ccccc2c2nc3ccccc3nc21,23.3
2,O=C(Cn1cnc2c(cnn2-c2ccc(F)cc2)c1=O)NCc1ccco1,-12.6
3,C=CCn1cc(C(C)=O)c(=O)[nH]c1=O,28.4
4,Cc1ccccc1NC(=S)Nc1ccc2[nH]c(=O)[nH]c2c1,18.9
5,O=C(NCC1COc2ccccc2O1)c1cccs1 (centres unmarked),-10.4
6,O=C(CSc1ncnc2c1cnn2-c1ccc(Cl)cc1)NCc1ccc2c(c1)OCO2,13.7
7,CC(OC(=O)c1ccc2ncsc2c1)C(=O)NCc1ccccc1 (centres unmarked),-2.26
8,Cc1nc(NC(=S)NC(=O)c2ccccc2)sc1C,14
9,Cc1cc(C)n(-c2nc3ccccc3c(=O)n2OCC#N)n1,11.7
10,CC1CCC(NC(=O)c2nc(Cn3ccc([N+](=O)[O-])n3)no2)CC1 (centres unmarked),-23.7
11,O=C(NCCN1CCC(Cc2ccccc2)CC1)C1CCCN(S(=O)(=O)c2cnc[nH]2)C1 (centres unmarked),4.42
12,CC1NC(=O)NC1CCCCCC(=O)NCCc1ccccc1 (centres unmarked),-0.365
13,COC(=O)c1ccc(COC(=O)c2nn(C)c(=O)c3ccccc23)cc1,24.8
14,CN(C(=O)CSc1nncn1-c1ccccc1)c1ccccc1,13
15,COc1ccc(NC(=O)CSCC(=O)N2CCCc3ccccc32)cc1,-2.41
16,O=C(NCCSCc1ccccc1)c1ccccc1,-6.04
17,O=C(CCCNC(=O)c1ccc(Cl)cc1)Nc1ccc(Br)cc1,5.18
18,COc1ccc(CC(=O)NC(=S)Nc2ccc(S(=O)(=O)NC(C)(C)C)cc2)cc1,10.8
19,N#Cc1ccccc1CSc1nc2ccc(NC(=O)c3ccccc3C(=O)O)cc2s1,29.2
20,C[C@@H](C(=O)NCc1ccccc1)[C@H]1C[C@]1(C)[C@H](NC(=O)OCc1ccccc1)c1ccccc1,-21.3
21,COc1ccccc1-n1nnnc1SCc1cc2c(cc1Br)OCO2,-9.95
22,Cc1cc(NC(=O)Nc2ccc(Cl)cc2)no1,3.37
23,Cc1ccc(CNC(=O)c2c(-c3ccccc3Cl)noc2C)cc1,6.1

row,SMILES,"hERG current change (%, negative = inhibition) at 10uM [%]"
1,Cc1ccc(C(=O)N/N=C\c2ccc(-c3ccc(Cl)c(Cl)c3)o2)cn1,-44.9
2,CCC1S/C(=N/N=C/c2ccco2)N(Cc2ccc(F)cc2)C1=O (centres unmarked),6.73
3,Cc1ccc2c(CN3C(=O)NC(C)(c4ccc5c(c4)OCO5)C3=O)cc(=O)oc2c1 (centres unmarked),-17.7
4,Cc1ccc(NC(=O)[C@@H]2CCCN2S(=O)(=O)c2ccccc2F)cc1,-2.5
5,CN(CC(=O)Nc1ccc(F)cc1)C(=O)COc1ccc([N+](=O)[O-])cc1Cl,-5.39
6,CCOC(=O)/C(=N\Nc1ccccc1Cl)N(C)C1CCCCC1,9.71
7,CCN=C1SC(C(=O)Nc2cccc(Br)c2)CC(=O)N1CC (centres unmarked),4.36
8,COc1cccc(NC(=O)N2CCCC2C(=O)NC(C)C)c1 (centres unmarked),13.7
9,O=C(NS(=O)(=O)c1ccccc1)c1cccc(Br)c1,18.9
10,CCCCSc1nc2c(cnn2-c2ccc(C)c(C)c2)c(=O)[nH]1,4.75
11,CCC(NC(=S)NCc1ccccc1)C(=O)O (centres unmarked),12.9
12,CCC1CCCCN1C(=O)CSc1nnc(CNC(=O)COc2ccc(Cl)cc2)o1 (centres unmarked),-32.5
13,COC(=O)c1[nH]c2cccc(OC)c2c1NC(=O)CN1CCC(C(N)=O)(N2CCCCC2)CC1,0.138
14,CN(C)CCNc1ncnc2oc(-c3ccccc3)c(-c3ccccc3)c12,-60.7
15,Cc1ccc(-c2nnc(Nc3ccc(OCC(N)=O)cc3)c3ccccc23)cc1S(N)(=O)=O,6.5
16,CCOC(=O)CC1Sc2ccccc2NC1=O (centres unmarked),-8.37
17,Cc1ccc(S(=O)(=O)CC(O)COc2ccccc2C#N)cc1 (centres unmarked),23.6
18,CCOC(=O)C1C(=O)NC(N2CCc3ccccc32)=NC1c1ccccc1 (centres unmarked),-0.74
19,COc1ccc(N(C(=O)COc2cccc(C)c2)S(=O)(=O)c2ccc(C)cc2)cc1,2.07
20,CN(C)c1ccc(NC(=O)c2sc(SCC(=O)Nc3nccs3)nc2N)cc1,5.2
21,CCCCN(Cc1ccccc1)C(=O)C1CCC(=O)N(CCc2ccccn2)C1 (centres unmarked),-31.4
22,CSc1ncccc1C(=O)NC(C)CCc1ccccc1 (centres unmarked),11.6
23,CC(C)=CCC/C(C)=C/C=N/NC(=O)c1cccc([N+](=O)[O-])c1,-14.2

row,SMILES,"hERG current change (%, negative = inhibition) at 10uM [%]"
1,COc1cccc(CN2CC(C(=O)N3CCCCCCC3)CCC2=O)c1 (centres unmarked),-2.24
2,COC(CNC(=O)c1ccc2c(c1)nc(C)n2-c1cc(C)cc(C)c1)OC,-24
3,COc1cc(/C=C/C(=O)OCC(=O)Nc2ccc(Cl)cn2)ccc1O,-6.4
4,CCc1cc(C(=O)OC)c(N2C(=O)C3C4C=CC(C4)C3C2=O)s1 (centres unmarked),21.6
5,CCc1ccc(C(CC(=O)c2ccc(Cl)cc2)C(=O)O)cc1 (centres unmarked),13.1
6,O=C(Nc1ccc2c(c1)CCC2)C1CCN(c2c3c(nc4ncnn24)CCC3)CC1,-73.1
7,COc1ccc(N(CC(=O)Nc2ccc(S(=O)(=O)N3CCCCC3)cc2)S(C)(=O)=O)cc1OC,-11
8,O=C(Nc1ccccc1Sc1ccccc1)c1ccccc1,-5.37
9,Cc1ccc(NC(=O)COC(=O)c2ccc3c(c2)NC(=O)C2CCCN32)cc1 (centres unmarked),-8.37
10,CNc1nc(N)c(C(=O)C(C)(C)C)s1,6.52
11,COc1ccc(OC)c(C(C(=O)NC2CCCCC2)N(C(=O)c2ccccn2)c2cccnc2)c1 (centres unmarked),7.19
12,CC(C)c1ccc(NC(=O)c2ccc(NS(C)(=O)=O)cc2)cc1,3.29
13,COc1ccccc1-c1nc(C#N)c(N2CCN(C(=O)c3ccco3)CC2)o1,-4.54
14,Br.c1ccc(-c2ccccc2OCc2nnc3n2CCC3)cc1,16.3
15,FC(F)(F)c1cc(Cl)c2nnc(-c3ccccn3)n2c1,-10.4
16,N#Cc1ccccc1NC(=O)CN1CCN(c2ccccn2)CC1,-29.8
17,CCCCC(=O)Nc1c(C)cc(C)cc1Cl,7.59
18,Cc1ccc(C(=O)NC(O)C(Cl)(Cl)Cl)cc1 (centres unmarked),2.52
19,Cc1ccc2nc(SCC(=O)NCC3CCCO3)c(C#N)cc2c1 (centres unmarked),12.2
20,COC(=O)CNC(=O)c1cccc(Cl)c1,7.13
21,CC[n+]1ccccc1/C=C/Nc1ccccc1.[I-],-44.7
22,COc1ccc(C)cc1NC(=O)CNC(=O)[C@@H]1Cc2ccccc2CN1,-27.4
23,FC(F)(Cl)c1nnc2ccc(Cl)nn12,19.1
